We go through 31 molecules from PubChem BioAssay AID1745853 (National Center for Advancing Translational Sciences (NCATS), 2022).

Holding throughout (test): Primary Screen for Target Class Profiling of Small Molecule Inhibitors of Methyltransferases
In test [1] the target is Glycine N-methyltransferase (Homo sapiens) (UniProt Q14749). The following applies: purified enzyme, MTase-Glo SAH luminescence; measured here: GNMT inhibition; at 40 µM; stronger effect = lower value. The procedure, abridged:
(§1)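 Each enzyme was assayed with SAM and its substrate. SAH formation detected by MTase-Glo luminescence; single-point 40 uM screen[…].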

For test [2], the target named is Guanidinoacetate N-methyltransferase (Homo sapiens) (UniProt Q14353). The following applies: purified enzyme, MTase-Glo SAH luminescence; measured here: GAMT inhibition; at 40 µM; stronger effect = lower value. The procedure, abridged:
as §1

Test [3] deals with Histamine N-methyltransferase (Homo sapiens) (UniProt P50135). As to conditions: purified enzyme, MTase-Glo SAH luminescence; measured here: HNMT inhibition; at 40 µM; stronger effect = lower value. A digest of the protocol: as §1
The target of test [4] is Nicotinamide N-methyltransferase (Homo sapiens) (UniProt P40261). The following applies: purified enzyme, MTase-Glo SAH luminescence; measured here: NNMT inhibition; at 40 µM; stronger effect = lower value. A digest of the protocol:
as §1

Test [5] addresses Phenylethanolamine N-methyltransferase (Homo sapiens) (UniProt P11086). The following applies: purified enzyme, MTase-Glo SAH luminescence; measured here: PNMT inhibition; at 40 µM; stronger effect = lower value. The procedure, abridged: as §1

The structures appear in SMILES notation. Some of the results follow. The main result of the screen is listed elsewhere. These columns were measured beside it and carry no call.
% is scaled to controls: 0 for no effect and ±100 for the full control effect.

Take `Cc1ccc(C(=O)Cn2nc3n(CC(C)C)c(=O)c4ccccc4n3c2=O)cc1`: the activity change, negative = inhibition in test [1] is 0.793%; in test [2], 0%; in test [3] it was 5.25%; in test [4], 2.07%; in test [5], 3.72%.
The corresponding values for `O=C(/C=C/c1ccc(O)cc1)O[C@H]1[C@H](OC2CCCCC2O)O[C@H](CO)[C@@H](O)[C@@H]1O` (stereo not given in full) are 0%, 0.055%, 2.02%, -11.6% and 3.75%.
Taken in the same sequence, the figures for `CC(=O)NCCc1ncc(C)n1C1CCC1` were 0.526%, -1.35%, -46.2%, -4.94% and -0.349%.
Take `COc1ccc(CCC(=O)N2CCCCCC2CN2CCC(OC)CC2)cc1` (stereo not given): the activity change, negative = inhibition in test [1] is -5.6%; in test [2], -6.33%; in test [3] it was -5.11%; in test [4], -9.94%; in test [5], -6.39%.
The corresponding values for `O=C1CN(Cc2cccc(F)c2)S(=O)(=O)c2ccccc2N1Cc1ccc(Cl)cc1` are 16.6%, 2.88%, 9.83%, 7.69% and 8.81%.
In the case of `COc1ccc(-c2cc(C(=O)N3CCOC(c4ccc(F)cc4)C3)[nH]n2)cc1` (stereo not given), the activity change, negative = inhibition in test [1] is -15%; in test [2], -0.083%; in test [3] it was -1.94%; in test [4] it was -1.74%; in test [5], 1.25%.
As for `Cc1ccc(Cl)cc1N1C(=O)c2cc3sccc3n2CC1(C)C(=O)NC1CCCCC1` (stereo not given), the activity change, negative = inhibition was -3.46% in test [1]; 1.7% in test [2]; -1.39% in test [3]; 5.29% in test [4]; -5.76% in test [5].
With `O=C1OC(c2ccc(O)cc2)C(O)=C1Cc1ccccc1` (stereo not given), the activity change, negative = inhibition is -4.61% in test [1]; 2.78% in test [2]; 5.57% in test [3]; -11.9% in test [4]; 1.48% in test [5].
The corresponding values for `COc1ccccc1C1NC(C(=O)O)Cc2c1[nH]c1ccccc21` (stereo not given) are -2.81%, 4.64%, -4.77%, -3.6% and -0.182%.
The corresponding values for `Cc1ccccc1CN1CCC(CN(Cc2cccnc2)C(=O)Cc2ccccc2)CC1` are -8.02%, -6.8%, -16.6%, -13.1% and -11.2%.
The corresponding values for `C#Cc1cccc(C(=O)N2CCC(Cc3ccc(Cl)cc3)(C(=O)OCC)CC2)c1` are -6.21%, -7.72%, -3.49%, -17.5% and 2.98%.
In the case of `Cc1ccc(Cn2c(=O)c3ccccc3n3c(=O)n(Cc4ccc(F)cc4)nc23)cc1`, the activity change, negative = inhibition in test [1] was 6.4%; in test [2], 0%; in test [3], 11.1%; in test [4] it was 7.23%; in test [5], 6.75%.
As for `CC1CCC(NC(=O)C2(C)Cn3c(ccc3-c3ccccc3)C(=O)N2CCC2=CCCCC2)CC1` (stereo not given), the activity change, negative = inhibition in test [1] turned out to be 8.87%; in test [2], 0%; in test [3] it was 6.01%; in test [4], 6.32%; in test [5] it was 2.82%.
Taken in the same sequence, the figures for `CCCN(C)C(=O)Cn1c(C)ccc(NS(=O)(=O)c2ccc(C)cc2)c1=O` were -4.56%, -5.88%, -3.27%, -8.06% and -20.6%.
For `OC[C@H]1O[C@@H](OC/C=C/c2ccc(O)cc2)[C@H](O)[C@@H](O)[C@@H]1O`, the activity change, negative = inhibition in test [1] is -5.66%; in test [2] it was -16.2%; in test [3], -0.123%; in test [4], -20.5%; in test [5], -11.2%.
The corresponding values for `COc1ccc(-c2cc3n(n2)CC(C)(C(=O)NC2CCCCC2)N(C2CCCCC2)C3=O)cc1OC` (stereo not given) are 3.4%, 1.58%, 10.6%, 10.6% and 3.55%.
The corresponding values for `CC1(C(=O)NC2CCCCCCC2)Cn2c(ccc2-c2ccco2)C(=O)N1CCCc1ccccc1` (stereo not given) are -9.38%, 1.34%, -0.245%, -9.89% and -6.06%.
The corresponding values for `Cc1cccc(-c2n[nH]n3c2nc(=O)c2ccc(C(=O)N4CCN(c5ccc(F)cc5)CC4)cc23)c1` are -15.3%, -1.73%, -0.478%, -6.33% and -4.1%.
Consider `CC(C)COc1cc(=O)n2c(c1C(=O)NCCCN1CCOCC1)CCCCC2`, for which the activity change, negative = inhibition in test [1] was -0.155%; in test [2], -0.805%; in test [3] it was 1.54%; in test [4], 3.4%; in test [5], -1.75%.
On to `COc1ccc2c(c1)c(NC(C)=O)c1n2CC(C)(C(=O)NC2CCCC2)N(Cc2ccco2)C1=O` (stereo not given), for which the activity change, negative = inhibition in test [1] was found to be 4.86%; in test [2] it was 0%; in test [3], 11.7%; in test [4], 13.9%; in test [5] it was 4.29%.
Turning to `Cc1cc(F)ccc1NC(=O)Cn1c(=O)oc2cc(S(=O)(=O)N3CC(C)CC(C)C3)ccc21` (stereo not given), the activity change, negative = inhibition in test [1] is -2.54%; in test [2] it was 1.67%; in test [3], -5.82%; in test [4], -5.62%; in test [5], -5.21%.
The corresponding values for `Cc1ccc(C(=O)Cn2nc3n(C)c(=O)c4ccc(C(=O)NC5CCCC5)cc4n3c2=O)cc1` are 0.591%, 4.63%, -1.6%, 5.59% and 0.624%.
On to `COCCN1C(=O)c2ccc(-c3ccccc3)n2CC1(C)C(=O)NC1CCCCCC1` (stereo not given), for which the activity change, negative = inhibition was 0.896% in test [1]; 0% in test [2]; -2.06% in test [3]; -7.11% in test [4]; -2.36% in test [5].
The corresponding values for `O=C1OCC(c2ccccc2)=C1Cc1ccccc1` are -0.405%, 1.08%, 9.46%, -20.3% and -10.9%.
The corresponding values for `CCCNC(=O)N[C@@H]1C=C(C(=O)N[C@H](CC(C)C)C(N)=O)C[C@@H](O)[C@@H]1O` are -2.98%, -1.25%, 2.2%, 0.543% and -13.1%.
For `O=C(O)c1cnc(N2CCCCC2)nc1-c1ccncc1`, the activity change, negative = inhibition in test [1] is -6.84%; in test [2] it was -7.84%; in test [3] it was -7.45%; in test [4], -7.51%; in test [5] it was -10.7%.
With `Cc1nnc([C@@H]2CC(F)(F)CN2C(=O)c2ccoc2)o1`, the activity change, negative = inhibition was -8.45% in test [1]; -6.67% in test [2]; -3.21% in test [3]; -18% in test [4]; -11.3% in test [5].
Taken in the same sequence, the figures for `COc1cccc(CNC(=O)c2cc3n(n2)CC(C)(C(=O)NC2CCCC2)N(C)C3=O)c1OC` (stereo not given) were -4.46%, -9.64%, 1%, -7.24% and -5.78%.
On to `O=C(CCc1nnc2ccc(NCCCN3CCCC3=O)nn12)NCc1ccc(F)cc1`, for which the activity change, negative = inhibition in test [1] stood at 4.9%; in test [2], 2.86%; in test [3] it was 14.9%; in test [4] it was 3.69%; in test [5] it was 10.9%.
Take `CCc1ccc(NC(=O)Cn2nc3n(CCC(C)C)c(=O)c4ccc(C(=O)NC(C)C)cc4n3c2=O)cc1`: the activity change, negative = inhibition was found to be 7.54% in test [1]; 0% in test [2]; 8.48% in test [3]; 3.36% in test [4]; 5.8% in test [5].
Regarding `CCCn1c(=O)c2ccc(Cl)cc2n2c(=O)n(CC(=O)Nc3cc(OC)cc(OC)c3)nc12`, the activity change, negative = inhibition was 3.31% in test [1]; 0% in test [2]; 5.67% in test [3]; -1.65% in test [4]; 3.11% in test [5].
